# Measurements published in publication PMC12623972, “Loss of full-length DAZL isoform disrupts PABPC1-dependent translational regulation and meiosis” (Cell Death & Disease, 2025).
# Target: T1, MYC-tagged DAZL_FL (mouse, UniProt Q64368 1-298)
# T1 sequence (looked up): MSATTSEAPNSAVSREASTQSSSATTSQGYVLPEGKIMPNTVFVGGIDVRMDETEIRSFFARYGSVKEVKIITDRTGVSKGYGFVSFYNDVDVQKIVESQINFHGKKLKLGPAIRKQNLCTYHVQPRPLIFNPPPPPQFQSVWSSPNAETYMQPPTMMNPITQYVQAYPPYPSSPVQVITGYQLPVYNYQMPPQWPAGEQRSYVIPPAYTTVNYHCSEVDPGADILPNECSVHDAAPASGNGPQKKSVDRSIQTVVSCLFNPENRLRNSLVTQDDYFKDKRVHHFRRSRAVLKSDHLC
# Experiment: cell-based or functional assay
binder,measurement,value
HA-tagged PABPC1 (natural protein) not shown,"luciferase activity of the Mdc1 3' UTR reporter plasmid, DAZL_FL co-expressed with PABPC1 compared to DAZL_Sh co-expressed with PABPC1",> 1.7 fold
same,"luciferase activity of the Psma8 3' UTR reporter plasmid, DAZL_FL co-expressed with PABPC1 compared to DAZL_Sh co-expressed with PABPC1",> 1.8 fold
same,"luciferase activity of the Tex19.1 3' UTR reporter plasmid, DAZL_FL co-expressed with PABPC1 compared to DAZL_Sh co-expressed with PABPC1",> 1.6 fold
